The campaign covered roughly 50,000 compounds. About 800 (1.6%) showed an effect of 50% or more. This is one part of the list.
Biological target: Bcl-2-like protein 10 (Homo sapiens) (UniProt Q9HD36)
Test: TR3 peptide-Bcl-B binding displacers, biochemical primary FP assay, phenotype converters (AID 1240);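 further: 0% = Bcl-B with tracer peptide and DMSO and 100% = tracer peptide lacking Bcl-B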
Details: GST-Bcl-B / FITC-TR3 peptide fluorescence polarization; stronger effect = higher value; compound at 3.75 mg/L

Sequence of UniProt Q9HD36 (Q9HD36 whole entry, looked up): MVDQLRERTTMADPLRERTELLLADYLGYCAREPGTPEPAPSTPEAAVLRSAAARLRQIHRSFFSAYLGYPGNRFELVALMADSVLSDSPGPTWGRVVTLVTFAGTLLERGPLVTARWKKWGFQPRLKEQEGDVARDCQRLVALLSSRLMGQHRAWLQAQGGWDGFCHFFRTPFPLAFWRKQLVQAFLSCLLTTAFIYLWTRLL

Row | SMILES | displacement [%]
1 | Cc1cc(C)cc(NC(=O)CN(CCc2ccccc2)S(=O)(=O)c2ccccc2)c1 | 9.3
2 | COc1ccc(OC)c(N(CC(=O)Nc2cccc(Cl)c2)S(C)(=O)=O)c1 | 9.2
3 | Cc1cc(C)n(-c2cc(N(C)C)nc(C)n2)n1 | -13.5
4 | COC(=O)C1=C(C)NC2=C(C(=O)CCC2)C1c1ccc(OCc2ccc(F)cc2)c(OC)c1 (stereo not drawn) | -1.7
5 | Cc1ccc(C)c(S(=O)(=O)Nc2c(C)n(C)n(-c3ccccc3)c2=O)c1 | 8.5
6 | CN(C)c1ccc(C(=S)N2CCCCC2)cc1 | -9.1
7 | S=c1[nH]nc(-c2ccccc2)n1C1CCCCC1 | -20.8
8 | CCc1c(C)sc(NC(=O)COc2ccc(Cl)cc2)c1C(N)=O | 24.5
9 | CCCCCOC(=O)C1=C(C)NC2=C(C(=O)CCC2)C1c1cccc(Cl)c1 (stereo not drawn) | 0
10 | Cc1ccccc1N/C=C/C(=O)c1ccc(Cl)cc1 | -27.6
11 | Oc1ccccc1-c1nc(-c2ccccc2)c(-c2cccs2)[nH]1 | 9.6
12 | CCOC(=O)c1c(-c2ccc(Br)cc2)csc1NC(=O)c1ccco1 | 9.3
13 | CCOc1cccc(-c2cc(C(=O)N3CCN(c4ccccc4OCC)CC3)c3ccccc3n2)c1 | 28.3
14 | CCCCOC(=O)c1ccc(NC(=O)Nc2ccc(OC)c(OC)c2)cc1 | -20.8
15 | O=C(CSc1ncn[nH]1)Nc1ccccc1F | 10.2
16 | CC(C)CNC(=O)CCCOc1ccc(Cl)cc1Cl | -10.3
17 | CCCCOC(C)n1cc(F)c(=O)[nH]c1=O (stereo not drawn) | 9
18 | C=CCNC(=O)CN(c1ccc(OC)cc1OC)S(=O)(=O)c1ccc(C)cc1 | 8.5
19 | CN(C)c1ccc(C2/C(=C(\O)c3ccccc3)C(=O)C(=O)N2c2cccnc2)cc1 (stereo not drawn) | 7
20 | COc1ccc(C(=O)c2ccc(Br)c([N+](=O)[O-])c2)cc1 | 0
21 | Cc1c(Cl)cccc1NC(=O)CN(c1ccc(Br)cc1)S(=O)(=O)c1ccccc1 | 0
22 | CC(=O)c1cccc(NC(=O)c2ccc(C)c([N+](=O)[O-])c2)c1 | -5

Row | SMILES | displacement [%]
23 | COC(=O)/C(=C\c1ccc(Cl)cc1)[N+](=O)[O-] | 9.7
24 | CC1CN(c2ccc([N+](=O)[O-])cc2Cl)CCN1S(=O)(=O)c1ccccc1 (stereo not drawn) | 10.3
25 | C=CCN1C(=O)C(C)(C)Nc2ccccc21 | -0.3
26 | O=C(NCc1cccc(CNC(=O)NC2CCCCC2)c1)NC1CCCCC1 | -10.9
27 | CCOC(=O)COc1ccc2cc(-c3nc4ccccc4o3)c(=O)oc2c1 | 8.8
28 | COc1ccc2ccccc2c1/C=C1/C(=O)NC(=S)N(c2ccc(Br)cc2)C1=O | 2.9
29 | O=S1(=O)N=C(Oc2ccc(-c3ccccc3)cc2)c2ccccc21 | 5.8
30 | COc1ccc(C2C(C(=O)OCC3CCCO3)=C(C)NC3=C2C(=O)CC(C)(C)C3)c(OC)c1OC (stereo not drawn) | -8.3
31 | COC(=O)c1sc(NC(=O)c2c(-c3ccccc3)noc2C)c(C(=O)OC)c1C | -7.2
32 | O=C(Cc1ccccc1)Nc1ccc(I)cc1Cl | -3.1
33 | CCOc1ccc(C(=O)Nc2cccc(NC(=O)c3cccc(Cl)c3)c2)cc1Cl | 7.8
34 | Clc1ccc(Cc2nc(-c3ccncc3)no2)cc1 | -12.3
35 | CCOC(=O)C1=NNC2(c3ccc(Cl)cc3)C(=O)N(c3cccc(OC)c3)C(=O)C12 (stereo not drawn) | 14
36 | Cc1[nH]n(-c2ccccc2)c(=O)c1C(=O)c1cccc(F)c1 | 0
37 | CN(C)c1ccc(/C=C/C(=O)c2cccc([N+](=O)[O-])c2)cc1 | 6.7
38 | COc1ccc(C(=O)Nc2ccc(Cc3ccncc3)cc2)cc1OC | -10.9
39 | COc1ccc(CCNC(=O)CN(c2ccc(C)cc2)S(=O)(=O)c2ccccc2)cc1OC | 1.7
40 | O=C(O)COc1ccc(Br)cc1/C=C1\C(=O)NC(=O)N(c2ccc(Cl)cc2)C1=O | 8
41 | CC(C)c1ccc(-c2nn(-c3ccccc3)cc2/C=N/O)cc1 | 2.5
42 | COc1ccc(C2=N/C(=C\N(C)C)C(=O)O2)cc1 | -9
43 | CC1=NN(c2ccc(Cl)c(C(=O)O)c2)C(=O)/C1=C\c1ccc(-c2cccc([N+](=O)[O-])c2)o1 | 11.9
44 | COc1ccc(/C=C2\C(=O)NN(c3ccccc3)C2=O)c(OC)c1OC | -17.8

Row | SMILES | displacement [%]
45 | O=C(O/N=C(/c1ccncc1)c1ccc([N+](=O)[O-])cc1)c1ccc(Br)cc1 | 8.4
46 | O=C1NC(c2cccc([N+](=O)[O-])c2)Nc2c1sc(=S)n2-c1ccccc1 (stereo not drawn) | 10.8
47 | COc1ccc(NC(=O)CN(c2ccc(C)cc2)S(=O)(=O)c2ccc(F)cc2)cc1OC | -24.5
48 | O=C(O)CN(CCc1ccccc1)S(=O)(=O)c1ccc(Br)cc1 | 14.5
49 | CCOc1ccccc1OCCOc1ccc(Cl)c(CC)c1 | -0.9
50 | CCNC(=S)NNc1nc(N2CCCCC2)nc(N2CCOCC2)n1 | -25.1
51 | COc1ccc(S(=O)(=O)N(Cc2ccccc2)c2ccccc2C(=O)O)cc1 | 2.3
52 | O=S(=O)(Nc1ccc(N2CCCCC2)cc1)c1cccs1 | -8.8
53 | COC(=O)c1ccc(COc2ccc3c(c2)oc(=O)c2ccccc23)cc1 | 12
54 | COc1cc(C(=O)Nc2c(C)cc(C)c(NC(=O)c3cc(OC)c(OC)c(OC)c3)c2C)cc(OC)c1OC | -0.6
55 | COc1cc(/C(C)=N/N2CCN(Cc3cccc4ccccc34)CC2)ccc1O | -2.5
56 | COc1cc(/C=C2\C(=O)NC(=O)N(c3ccc(Cl)cc3)C2=O)ccc1OCC(=O)O | -9.7
57 | O=C(Nc1ccccc1[N+](=O)[O-])C1COc2ccccc2O1 (stereo not drawn) | 5.2
58 | O=C(CN1C(=O)c2ccc([N+](=O)[O-])cc2C1=O)Nc1ccc(Br)cc1C(=O)O | 16.2
59 | O=c1c2c(nc3cc(-c4ccc(F)cc4)[nH]n13)CCC2 | 16.7
60 | CCN(CC)C(=O)c1ccc(CN(c2cc(Cl)ccc2C)S(=O)(=O)c2ccccc2)cc1 | -3.4
61 | COC(=O)c1ccc(C(c2ccc(C(=O)OC)cc2)(C(F)(F)F)C(F)(F)F)cc1 | 3.3
62 | CCOc1ccccc1NC(=O)c1c(NC(=O)c2ccccc2C)sc2c1CCCCC2 | -2.6
63 | Cc1c(NC(=O)Nc2ccc3ccccc3c2)c(=O)n(-c2ccccc2)n1C | -7.3
64 | Cc1cc2nc3s/c(=C/c4ccc(-c5ccc(Cl)cc5)o4)c(=O)n3c2cc1C | 23.1
65 | NNC(=O)CN1C(=O)Nc2ccc(Br)cc2C1c1ccccc1 (stereo not drawn) | -2
66 | Cc1[nH]c2ccccc2c1C(=O)NS(=O)(=O)c1ccccc1Cl | 21.7

Row | SMILES | displacement [%]
67 | CCN(CC)S(=O)(=O)c1ccc(Cl)c(C(=O)NC2CCCCC2)c1 | 14.8
68 | CC(C)Oc1ccc(C(=O)Nc2nc(-c3ccc(F)cc3F)cs2)cc1 | -2.7
69 | O=C(CCCN1C(=O)c2cccc3cccc(c23)C1=O)OCC(=O)c1ccc(F)cc1 | -39.8
70 | O=C(COc1ccccc1)Nc1nnc(Cc2ccccc2)s1 | 12.7
71 | CC(/C=C/c1ccc(Br)cc1)=C\C(=O)O | -2.1
72 | CCOC(=O)/C(C(N)=NCCO)=C(/O)OCC | -7.2
73 | COc1ccc2ccccc2c1-c1nnc2ccc3ccccc3n12 | -21
74 | Cc1ccc(OCC(=O)Nc2c(C(C)C)cccc2C(C)C)cc1C | 5
75 | Cc1cccc(C(=O)Nc2c(C(=O)N(C)C)cnn2-c2ccccc2)c1 | -12.3
76 | COc1ccc2nc(NC(=O)c3ccc(S(=O)(=O)N(C)C)cc3)sc2c1 | 13.1
77 | COc1ccccc1N(CC(=O)Nc1cc(C)ccc1C)S(=O)(=O)c1ccccc1 | 1.4
78 | CC(=O)Nc1ccccc1NC(=O)c1cccc([N+](=O)[O-])c1C | 2.9
79 | Nc1ccccc1N=Cc1nc(-c2ccccc2)oc1O | 0.4
80 | O=C(O)C(Cc1ccc(O)cc1)c1ccccc1 (stereo not drawn) | 5.6
81 | Cc1cc2nc(SCc3ccc(Cl)cc3)nc(C)c2cc1C | 11
82 | c1ccc(CN2CCN(Cc3ccncc3)CC2)nc1 | -13.8
83 | O=C(c1ccc([N+](=O)[O-])cc1)N1CCN(Cc2cccnc2)CC1 | -10.2
84 | COc1cc(/C=C(\C#N)c2ccc([N+](=O)[O-])cc2)c(OC)cc1Br | 14.7
85 | COc1ccccc1N=C(NOC(C)=O)c1nonc1N | 15
86 | CCOC(=O)c1c(NC(=O)C(C)(C)C)sc2c1CCC2 | 6.6
87 | COC(=O)c1cc(NC(=O)c2cc(Br)ccc2OC)cc(C(=O)OC)c1 | 6.1
88 | O=C1C(Cl)=C(Nc2ccc(F)cc2)C(=O)N1c1ccccc1 | 10.9

Row | SMILES | displacement [%]
89 | COc1ccccc1N1CCN(/N=C(\C)c2ccc(F)cc2)CC1 | -8.5
90 | O=C(c1ccccc1[N+](=O)[O-])N1CCN(c2cccc(Cl)c2)CC1 | -5.3
91 | COc1ccc(NC(=O)C(=O)N/N=C/c2cc(OC)ccc2OC)cc1 | 19
92 | C=CCn1c(NC(=O)c2ccc(C)cc2)nc2ccccc21 | -14.6
93 | O=C(/C=C/c1ccco1)Nc1ccc(O)c(-c2nc3ccccc3o2)c1 | -39
94 | O=C(NC(=S)Nc1ccc(N2CCCCC2)cc1)c1cccs1 | -7.9
95 | CCOC(=O)N1CCN(C(=O)c2ccc([N+](=O)[O-])cc2)CC1 | -8.4
96 | COc1ccc(/C=C/C(=O)NCCSCc2ccc(Cl)cc2)cc1OC | -6.5
97 | COC(=O)c1ccccc1N1C(=O)c2ccc(C(=O)O)cc2C1=O | 14.6
98 | CCOC(=O)C(=O)Nc1ccc(S(=O)(=O)Nc2ccc(OC)cc2)cc1 | -0.2
99 | COc1ccc(CSc2nnc(SCc3ccc(OC)cc3)s2)cc1 | -0.6
100 | O=S(=O)(NCc1ccccc1)c1ccc2ccccc2c1 | 1
101 | CNC(=O)C(=O)Nc1ccc(Oc2ccccc2)cc1 | -4.6
102 | O=C(COc1ccc(Br)cc1)Nc1ccc(Nc2ccccc2)cc1 | 45.7
103 | CN(C)c1ccnc2sc(C(=O)c3ccc(Br)cc3)c(N)c12 | 10
104 | COCCOC(=O)c1ccc(NC(=O)COc2cc(C)ccc2C(C)C)cc1 | -15.3
105 | Cc1nc2ccccc2n1CC(O)COc1cccc(Cl)c1 (stereo not drawn) | 9.9
106 | O=C1/C(=C/c2nc3ccccc3c(=O)n2-c2ccccc2)c2ccccc2N1Cc1ccccc1 | 0.1
107 | CCOC(=O)c1c(N)sc(C(=O)N2CCCC(C(N)=O)C2)c1C (stereo not drawn) | -3.8
108 | CN(C)c1ccc(/C=C2\SC(=S)N(c3ccccc3Cl)C2=O)cc1 | -13.6

Source: PubChem BioAssay AID1240 (Sanford-Burnham Center for Chemical Genomics, 2008)
